Measurements reported in the supplement of paper PMC4967469.
Lines with a small IC50 respond at low doses; fits outside the tested doses are given as limits. AUC sums up the same curve from the lowest dose to the 256-fold higher top dose: 1 means no effect, lower means more sensitive. For some of these results: An inferred top dose is not printed in the source and was worked back from the curve model.

Columns and labels:
Assay in all cases: Viability of human cancer cell lines after 72 h of drug (GDSC screen)
[1] = compound: CC[C@H](CO)Nc1nc(NCc2ccccc2)c2ncn(C(C)C)c2n1 [Roscovitine]; conditions: top dose 16 µM; top dose inferred
Experimental: (§1)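 Human cancer cell lines in 384-well plates, medium with 10% serum, drug for 72 h over a 256-fold dose range (nine 2-fold or five 4-fold steps up to the top dose). Adherent lines were fixed and stained with the nucleic acid dye Syto60, suspension lines read with resazurin; signal relative to control wells, capped at 0 and 100%. One two-parameter sigmoid per drug and line, fitted in a mixed model over all curves with the slope shared within a line.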

[2] = compound: CO[C@@]12[C@H](COC(N)=O)C3=C(C(=O)C(C)=C(N)C3=O)N1C[C@@H]1N[C@@H]12 [Mitomycin C]; conditions: top dose 16 µM
Experimental: as §1

[3] = compound: CO[C@@H]1[C@H](N(C)C(=O)c2ccccc2)C[C@H]2O[C@]1(C)n1c3ccccc3c3c4c(c5c6ccccc6n2c5c31)C(=O)NC4 [Midostaurin]; conditions: top dose 0.512 µM; top dose inferred
Experimental: as §1

[4] = compound: Cc1ccc(C(=O)Nc2cccc(C(F)(F)F)c2)cc1Nc1nc(-c2cccnc2)nc2c1cnn2C [NVP-BHG712]; conditions: top dose 10.24 µM; top dose inferred
Experimental: as §1

[5] = compound: O=C(O)CNC(=O)c1c(O)c2ccccc2n(Cc2ccccc2)c1=O [IOX2]; conditions: top dose 0.1 µM; top dose inferred
Experimental: as §1

[6] = compound: COc1cc(Nc2c(C#N)cnc3cc(OCCCN4CCN(C)CC4)c(OC)cc23)c(Cl)cc1Cl [Bosutinib]; conditions: top dose 2 µM
Experimental: as §1

## H-EMC-SS (chondrosarcoma, adherent)
[1]
  AUC: 0.945
  IC50: > 16000 nM
[2]
  AUC: 0.508
  IC50: 1060 nM
[3]
  AUC: 0.899
  IC50: > 512 nM
[4]
  AUC: 0.702
  IC50: 2830 nM

## HAL-01 (lymphoblastic leukaemia, suspension)
[1]
  AUC: 0.966
  IC50: > 16000 nM
[5]
  AUC: 0.983
  IC50: > 100 nM
[2]
  AUC: 0.123
  IC50: 77.7 nM
[6]
  AUC: 0.846
  IC50: 1210 nM
[4]
  AUC: 0.694
  IC50: 2090 nM

## HCC1599 (breast, suspension)
[1]
  AUC: 0.896
  IC50: > 16000 nM
[2]
  AUC: 0.353
  IC50: 368 nM
[3]
  AUC: 0.898
  IC50: > 512 nM
[4]
  AUC: 0.828
  IC50: 7610 nM

## HCC-33 (small cell lung carcinoma, adherent)
[1]
  AUC: 0.957
  IC50: > 16000 nM
[2]
  AUC: 0.599
  IC50: 1870 nM
[3]
  AUC: 0.987
  IC50: > 512 nM
[4]
  AUC: 0.972
  IC50: > 10200 nM

## HT-144 (melanoma, adherent)
[1]
  AUC: 0.924
  IC50: > 16000 nM
[5]
  AUC: 0.979
  IC50: > 100 nM
[2]
  AUC: 0.141
  IC50: 63.2 nM
[3]
  AUC: 0.85
  IC50: 461 nM
[4]
  AUC: 0.941
  IC50: > 10200 nM

## Hs-445 (Hodgkin lymphoma, suspension)
[1]
  AUC: 0.954
  IC50: > 16000 nM
[5]
  AUC: 0.969
  IC50: > 100 nM
[2]
  AUC: 0.095
  IC50: < 62.5 nM
[3]
  AUC: 0.919
  IC50: > 512 nM
[4]
  AUC: 0.896
  IC50: > 10200 nM

## IM-9 (myeloma, suspension)
[1]
  AUC: 0.992
  IC50: > 16000 nM
[5]
  AUC: 0.991
  IC50: > 100 nM
[2]
  AUC: 0.108
  IC50: 70 nM
[3]
  AUC: 0.957
  IC50: > 512 nM
[6]
  AUC: 0.98
  IC50: > 2000 nM

## IST-MES1 (mesothelioma, adherent)
[1]
  AUC: 0.979
  IC50: > 16000 nM
[5]
  AUC: 0.934
  IC50: > 100 nM
[2]
  AUC: 0.716
  IC50: 4120 nM
[3]
  AUC: 0.92
  IC50: > 512 nM
[4]
  AUC: 0.916
  IC50: > 10200 nM

## JAR (urogenital system, adherent)
[1]
  AUC: 0.891
  IC50: > 16000 nM
[5]
  AUC: 0.959
  IC50: > 100 nM
[2]
  AUC: 0.748
  IC50: 5050 nM
[3]
  AUC: 0.987
  IC50: > 512 nM
[4]
  AUC: 0.988
  IC50: > 10200 nM

## KG-1 (acute myeloid leukaemia, suspension)
[1]
  AUC: 0.985
  IC50: > 16000 nM
[5]
  AUC: 0.989
  IC50: > 100 nM
[2]
  AUC: 0.406
  IC50: 568 nM
[4]
  AUC: 0.825
  IC50: 5280 nM

## LB996-RCC (kidney, adherent)
[1]
  AUC: 0.943
  IC50: > 16000 nM
[5]
  AUC: 0.975
  IC50: > 100 nM
[2]
  AUC: 0.098
  IC50: < 62.5 nM
[3]
  AUC: 0.904
  IC50: > 512 nM
[4]
  AUC: 0.95
  IC50: > 10200 nM

## LC-2-ad (lung adenocarcinoma, adherent)
[1]
  AUC: 0.975
  IC50: > 16000 nM
[5]
  AUC: 0.977
  IC50: > 100 nM
[2]
  AUC: 0.03
  IC50: < 62.5 nM
[3]
  AUC: 0.669
  IC50: 96 nM
[4]
  AUC: 0.913
  IC50: > 10200 nM

## LNCaP-Clone-FGC (prostate, adherent)
[1]
  AUC: 0.971
  IC50: > 16000 nM
[5]
  AUC: 0.873
  IC50: > 100 nM
[2]
  AUC: 0.381
[3]
  AUC: 0.977
  IC50: > 512 nM
[4]
  AUC: 0.904
  IC50: > 10200 nM
